We go through 54 molecules from ChEMBL document CHEMBL4888484, “Replenishing the malaria drug discovery pipeline: Screening and hit evaluation of the MMV Hit Generation Library 1 (HGL1) against asexual blood stage Plasmodium falciparum ,using a nano luciferase reporter read-out” (2022).

Screen size: about 150,000 compounds; about 540 (0.36%) showed an effect of 50% or more. Some of the results follow.

In this assay the test system is Plasmodium falciparum. Put plainly: Primary screen in NF54 nanoGlo assay, in single point, at 2uM, 72h; a lower Z score goes with more inhibition. The class given is functional, Erythrocyte. As to conditions: timepoint 72 hour.
With `Cc1[nH]c2ccc(Br)cc2c1Cc1nc(-c2cncc(Cl)c2)no1`, the “% Inhibition” value is recorded as -4% and the Z score is 0.65.
The matching figures for `N#Cc1ccc(O[C@H]2CCOC[C@@H]2NC(=O)CCc2cc(O)no2)cc1`: 5% and -0.65.
The matching figures for `CCN(CC)S(=O)(=O)c1ccc(NCc2nncn2C)cc1`: -7% and 1.31.
For `C[C@H]1CN(CCC(=O)NCc2nccs2)Cc2ccccc2O1`, the “% Inhibition” value is -6% and the Z score is recorded as 0.89.
The matching figures for `NC(=O)c1cccc(CS(=O)(=O)CC2CCCC2)n1`: -13% and 1.39.
The matching figures for `O=C(NCc1ccccn1)c1ccc(OCc2nnc(C(=O)Nc3ccc(F)c(F)c3)s2)cc1`: -33% and 3.03.
The matching figures for `COc1cc(C)nc(NCc2nc(C(F)(F)F)c[nH]2)n1`: -6% and 0.69.
As for `CCOc1ccccc1C(F)(F)C(=O)Nc1cn(C)nc1C(N)=O`, the “% Inhibition” value is listed as -1% and the Z score is reported as 0.29.
The matching figures for `CCn1nccc1C1NC(=O)CCC1NC(=O)c1ccccc1C` (stereo not drawn): 29% and -3.3.
Consider `Cn1cc(CCNCc2c[nH]nc2-c2cccs2)cn1`, for which the “% Inhibition” value is listed as -9% and the Z score was 1.23.
The matching figures for `Cc1nc(CNC(=O)CCn2c(C)nc3ccccc32)nc2c1CCCC2`: -10% and 1.23.
The matching figures for `CC(C)c1nnc(CNc2ccc(C#N)cc2)o1`: 36% and -0.73.
For `Cc1cccc(NC(=O)CN(CC2CCCO2)C(=O)C2CCS(=O)(=O)C2)c1C` (stereo not drawn), the “% Inhibition” value is listed as 13% and the Z score is given as -1.17.
The matching figures for `CN(CC(=O)Nc1cccc(Cl)c1Cl)S(C)(=O)=O`: -4% and 0.74.
The matching figures for `CC(C)(C(=O)Nc1cccc(OCC(=O)O)c1)[C@@H]1CCCCO1`: -11% and 1.16.
In the case of `O=C(NCc1ccncc1)c1c[nH]c2cc(Cl)ccc2c1=O`, the “% Inhibition” value is 6% and the Z score is listed as -0.81.
The matching figures for `CCCn1cc(-c2ccnc(N[C@H](C)c3ccccc3)n2)c(C)n1`: -9% and 1.41.
On to `COC(=O)[C@@H]1C[C@@H](O)CN1C(=O)c1coc(COc2cccc(F)c2)n1`, for which the “% Inhibition” value is given as -20% and the Z score is 1.87.
For the molecule `O=C(CCc1cnccn1)N1CCO[C@@H](CC(c2ccccc2)c2ccccc2)C1`, the “% Inhibition” value is given as -2% and the Z score was found to be 0.41.
The matching figures for `Cc1nc(O)nc(O)c1S(=O)(=O)N1CCC[C@H](C(=O)NC2CCCCCCC2)C1`: 10% and -1.22.
The matching figures for `COc1ccc(-c2ccc(N3CCN(C(=O)CN(C(=O)NC(C)(C)C)[C@@H](C)c4ccccc4)CC3)nn2)cc1OC`: -23% and 1.99.
The matching figures for `CC(C)(C)c1csc(Cn2cnc(C#N)n2)n1`: -10% and 1.53.
For the molecule `COc1cc(NC(=O)c2cc(Br)ccc2Cl)ncn1`, the “% Inhibition” value turned out to be 1% and the Z score is listed as -0.11.
The matching figures for `CCc1ccccc1-c1noc([C@@H]2COCCO2)n1`: 18% and -2.25.
The matching figures for `CCc1nc(C)c(C(=O)N[C@@H](CC)c2ncccc2C)o1`: -11% and 1.74.
The matching figures for `CC(C)(Oc1cccc(Cl)c1)C(=O)NCCNS(C)(=O)=O`: -15% and 2.03.
As to `CC(=O)Nc1nc(-c2ccc(S(=O)(=O)N3CCOCC3)cc2)cs1`, the “% Inhibition” value is on record as -6% and the Z score stood at 0.9.
The matching figures for `CC(C)(C)[C@H](COc1ccccc1F)NC(=O)CCn1ccnn1`: -10% and 1.35.
The matching figures for `CCn1nncc1CNC(=O)Nc1c(Cl)ccc(C)c1C`: -4% and 0.55.
The matching figures for `Cc1nc(O)nc(C)c1CCC(=O)NC(C)(C)Cc1ccc(O)cc1`: 5% and -0.66.
With `Cn1ncc(CN2CCC[C@H](C(=O)Cc3ccccc3)C2)c1C1CC1`, the “% Inhibition” value is on record as -13% and the Z score is listed as 1.29.
The matching figures for `Cc1cc(C(=O)N2CCc3c(ncn3-c3ccc(F)cc3)C2)nn1[C@@H](C)C1CC1`: 35% and -3.99.
The matching figures for `COc1ccc(NC(=O)N(CCO)Cc2nccs2)cc1OC`: -9% and 1.62.
The matching figures for `Cc1nn(C(F)F)cc1S(=O)(=O)N1CCNCC1`: 0% and -0.02.
Consider `COc1ccc(C2CN(Cc3ccccc3)CC2CO)cc1` (stereo not drawn), for which the “% Inhibition” value worked out at 4% and the Z score was -0.45.
The matching figures for `CNC(=O)C1(N2CCC[C@H]2C(=O)NCc2ccccc2)CCOCC1`: -1% and 0.14.
Take `CC(C)(C)C1CCC(CNC(=O)Nc2nc(CS(C)(=O)=O)no2)CC1` (stereo not drawn): the “% Inhibition” value is -4% and the Z score stood at 0.56.
Take `Cc1cc(N2CCC(NC(=O)c3c(F)cccc3Cl)CC2)n[nH]1`: the “% Inhibition” value is listed as -13% and the Z score was found to be 1.68.
The matching figures for `Cc1cc(NC(=O)[C@@H]2CN(C)c3ccccc3O2)ccc1N1CCCC1=O`: -3% and 0.38.
The matching figures for `O=C(C1c2ccccc2Oc2ccccc21)N1CCC(Oc2ccc(Cl)cn2)CC1`: -8% and 1.22.
As to `Cc1cc(C)cc(OCCCN2CCC[C@@H]2C(=O)O)c1`, the “% Inhibition” value is recorded as 5% and the Z score was -0.66.
The matching figures for `O=C(CCc1ccccn1)N1CCC[C@H](Cc2nc3ccccc3[nH]2)C1`: 1% and -0.08.
Regarding `CN(Cc1ccccc1)c1ncnc2c1CCN(C(=O)C1CCC1)CC2`, the “% Inhibition” value is reported as -21% and the Z score turned out to be 2.11.
The matching figures for `CC(C)c1nc(C(=O)NCC2(N3CCN(C)CC3)CCCC2)cs1`: 1% and -0.26.
The matching figures for `CC(=O)N1CCC(C(=O)N2CC[C@@]3(CCCN(CCC4CCCCC4)C3)C2)CC1`: -6% and 0.79.
The matching figures for `CNc1nc2c(c(C(=O)N3CCCC3)n1)CN(C/C=C/c1ccccc1)CC2`: 3% and -0.4.
Consider `CN(C)Cc1ccc(-c2ccc3nc[nH]c(=O)c3c2)cc1`, for which the “% Inhibition” value was -3% and the Z score worked out at 0.47.
The matching figures for `Cc1oc(-c2ccccc2)nc1[C@@H]1CC(=O)Nc2cc3[nH]ncc3cc21`: -7% and 1.3.
As for `O=C1CCN(Cc2ccc3c(c2)CCO3)CCOCCN1`, the “% Inhibition” value is recorded as -1% and the Z score amounted to 0.15.
The matching figures for `O=C(O)[C@H]1CCCN1CCCOc1cccc(Cl)c1`: -3% and 0.37.
The matching figures for `CC(C)[C@@H](N)C(=O)NC[C@H]1CC[C@H](C(=O)N[C@@H](C(=O)O)C(C)C)CC1`: -7% and 0.98.
The matching figures for `O=C1NC2(CCOCC2)C(=O)N2Cc3ccccc3C[C@H]12`: -14% and 1.45.
`Cc1ccc(C(=O)N[C@H]2CO[C@H]3[C@@H]2OC[C@H]3OCc2ccccc2)cc1`: the “% Inhibition” value was -12% and the Z score stood at 2.19.
The matching figures for `O=C(CCn1ccnc1)NCc1ccc(F)cc1`: 16% and -1.7.

Usually % Inhibition stands for the relative decrease from the control value, in per cent.
